Measured values from US8415310B2, “Isoxazoline derivatives as antiparasitic agents” (AH USA 42 LLC, priority 2010, dated 2013).
Some of these results come from one statement about several compounds together.

Legend:
Haematobia irritans = test: Horn Fly (Haematobia irritans) Feed Assay; assay type: in vivo; conditions: horn flies fed on treated citrated bovine blood; knockdown and mortality at approximately 2 and 24 hours
Ctenocephalides felis = test: Flea (Ctenocephalides felis) Membrane Feed Assay-Adult; assay type: in vivo
[1] = adult fleas fed on treated citrated bovine blood approximately 2 hours, knockdown and/or death at approximately 2 and 24 hours
[2] = comparative data, flea feed assay, 24 hour time period

Structure (SMILES) | lethal dose 90% (LD^90) (Haematobia irritans) [µg/mL] | lethal dose 90% (LD^90) (Ctenocephalides felis; [1]) [µg/mL] | lethal dose 90% (LD^90) (Ctenocephalides felis; [2]) [μg/cm^2]
CCNC(=O)N1CC(F)(c2ccc(C3=NOC(c4cc(Cl)c(Cl)c(Cl)c4)(C(F)(F)F)C3)cc2)C1 (stereo not shown) [Example 4, N-ethyl-3-fluoro-3-(4-(5-(3,4,5-trichlorophenyl)-5-(trifluoromethyl)-4,5-dihydroisoxazol-3-yl)phenyl)azetidine-1-carboxamide] | ≤ 1 | ≤ 0.3 | 
CNC(=O)N1CC(F)(c2ccc(C3=NOC(c4cc(Cl)cc(Cl)c4)(C(F)(F)F)C3)cc2)C1 (stereo not shown) [Example 8, 3-(4-(5-(3,5-dichlorophenyl)-5-(trifluoromethyl)-4,5-dihydroisoxazol-3-yl)phenyl)-3-fluoro-N-methylazetidine-1-carboxamide] | ≤ 0.3 | ≤ 1 | 
O=C(NC1CC1)N1CC(F)(c2ccc(C3=NOC(c4cc(Cl)cc(Cl)c4)(C(F)(F)F)C3)cc2)C1 (stereo not shown) [Example 10, N-cyclopropyl-3-(4-(5-(3,5-dichlorophenyl)-5-(trifluoromethyl)-4,5-dihydroisoxazol-3-yl)phenyl)-3-fluoroazetidine-1-carboxamide] | ≤ 0.3 |  | 
O=C(CC1CC1)N1CC(F)(c2ccc(C3=NOC(c4cc(Cl)c(F)c(Cl)c4)(C(F)(F)F)C3)cc2)C1 (stereo not shown) [Example 13, 2-cyclopropyl-1-(3-(4-(5-(3,5-dichloro-4-fluorophenyl)-5-(trifluoromethyl)-4,5-dihydroisoxazol-3-yl)phenyl)-3-fluoroazetidin-1-yl)ethanone] | ≤ 1 | ≤ 1 | 
CSCC(=O)N1CC(F)(c2ccc(C3=NOC(c4cc(Cl)c(F)c(Cl)c4)(C(F)(F)F)C3)cc2)C1 (stereo not shown) [Example 15, 1-(3-(4-(5-(3,5-dichloro-4-fluorophenyl)-5-(trifluoromethyl)-4,5-dihydroisoxazol-3-yl)phenyl)-3-fluoroazetidin-1-yl)-2-(methylthio)ethanone] | ≤ 1 | ≤ 1 | 
O=C(NC1CC1)N1CC(F)(c2ccc(C3=NOC(c4cc(Cl)c(F)c(Cl)c4)(C(F)(F)F)C3)cc2)C1 (stereo not shown) [Example 20, N-cyclopropyl-3-(4-(5-(3,5-dichloro-4-fluorophenyl)-5-(trifluoromethyl)-4,5-dihydroisoxazol-3-yl)phenyl)-3-fluoroazetidine-1-carboxamide] | ≤ 1 | ≤ 1 | 
CNC(=O)N1CC(F)(c2ccc(C3=NOC(c4cc(Cl)c(F)c(Cl)c4)(C(F)(F)F)C3)cc2)C1 (stereo not shown) [Example 21, 3-(4-(5-(3,5-dichloro-4-fluorophenyl)-5-(trifluoromethyl)-4,5-dihydroisoxazol-3-yl)phenyl)-3-fluoro-N-methylazetidine-1-carboxamide] | ≤ 1 | ≤ 1 | 
CCNC(=O)N1CC(F)(c2ccc(C3=NOC(c4cc(Cl)c(F)c(Cl)c4)(C(F)(F)F)C3)cc2)C1 (stereo not shown) [Example 22, 3-(4-(5-(3,5-dichloro-4-fluorophenyl)-5-(trifluoromethyl)-4,5-dihydroisoxazol-3-yl)phenyl)-N-ethyl-3-fluoroazetidine-1-carboxamide] | ≤ 1 | ≤ 1 | 
CNC(=O)N1CC(F)(c2ccc(C3=NOC(c4cc(C(F)(F)F)cc(C(F)(F)F)c4)(C(F)(F)F)C3)cc2)C1 (stereo not shown) [Example 31, 3-(4-(5-(3,5-bis(trifluoromethyl)phenyl)-5-(trifluoromethyl)-4,5-dihydroisoxazol-3-yl)phenyl)-3-fluoro-N-methylazetidine-1-carboxamide] | ≤ 1 | ≤ 1 | 
CCNC(=O)N1CC(F)(c2ccc(C3=NOC(c4cc(C(F)(F)F)cc(C(F)(F)F)c4)(C(F)(F)F)C3)cc2)C1 (stereo not shown) [Example 32, 3-(4-(5-(3,5-bis(trifluoromethyl)phenyl)-5-(trifluoromethyl)-4,5-dihydroisoxazol-3-yl)phenyl)-N-ethyl-3-fluoroazetidine-1-carboxamide] | ≤ 0.3 | ≤ 0.3 | 
O=C(NC1CC1)N1CC(O)(c2ccc(C3=NOC(c4cc(C(F)(F)F)cc(C(F)(F)F)c4)(C(F)(F)F)C3)cc2)C1 (stereo not shown) [Example 34, 3-(4-(5-(3,5-bis(trifluoromethyl)phenyl)-5-(trifluoromethyl)-4,5-dihydroisoxazol-3-yl)phenyl)-N-cyclopropyl-3-hydroxyazetidine-1-carboxamide] | ≤ 0.3 | ≤ 3 | 
O=C(C1CC1)N1CC(F)(c2ccc(C3=NOC(c4cc(Cl)c(F)c(Cl)c4)(C(F)(F)F)C3)cc2)C1 (stereo not shown) [Example 40, Cyclopropyl(3-(4-(5-(3,5-dichloro-4-fluorophenyl)-5-(trifluoromethyl)-4,5-dihydroisoxazol-3-yl)phenyl)-3-fluoroazetidin-1-yl)methanone] | ≤ 1 | ≤ 1 | 
N#CCC(=O)N1CC(F)(c2ccc(C3=NOC(c4cc(Cl)cc(Cl)c4)(C(F)(F)F)C3)cc2)C1 (stereo not shown) [Example 42, 3-(3-(4-(5-(3,5-Dichlorophenyl)-5-(trifluoromethyl)-4,5-dihydroisoxazol-3-yl)phenyl)-3-fluoroazetidin-1-yl)-3-oxopropanenitrile] | ≤ 1 | ≤ 3 | 
CCC(=O)N1CC(F)(c2ccc(C3=NOC(c4cc(Cl)cc(Cl)c4)(C(F)(F)F)C3)cc2)C1 (stereo not shown) [Example 45, 1-(3-(4-(5-(3,5-Dichlorophenyl)-5-(trifluoromethyl)-4,5-dihydroisoxazol-3-yl)phenyl)-3-fluoroazetidin-1-yl)propan-1-one] | ≤ 1 | ≤ 1 | 
O=C(CC1CC1)N1CC(F)(c2ccc(C3=NOC(c4cc(C(F)(F)F)cc(C(F)(F)F)c4)(C(F)(F)F)C3)cc2)C1 (stereo not shown) [Example 59, 5-[3,5-bis(trifluoromethyl)phenyl]-3-{4-[1-(cyclopropylacetyl)-3-fluoroazetidin-3-yl]phenyl}-5-(trifluoromethyl)-4,5-dihydroisoxazole] | ≤ 1 | ≤ 1 | 
CS(=O)(=O)N1CC(F)(c2ccc(C3=NOC(c4cc(Cl)cc(C(F)(F)F)c4)(C(F)(F)F)C3)cc2)C1 (stereo not shown) [Example 85, 5-(3-chloro-5-(trifluoromethyl)phenyl)-3-(4-(3-fluoro-1-(methylsulfonyl)azetidin-3-yl)phenyl)-5-(trifluoromethyl)-4,5-dihydroisoxazole] | ≤ 1 |  | 
O=C(C1CC1)N1CC(F)(c2ccc(C3=NOC(c4cc(F)c(F)c(C(F)(F)F)c4)(C(F)(F)F)C3)cc2)C1 (stereo not shown) [Example 158, 3-{4-[1-(cyclopropylcarbonyl)-3-fluoroazetidin-3-yl]phenyl}-5-[3,4-difluoro-5-(trifluoromethyl)phenyl]-5-(trifluoromethyl)-4,5-dihydroisoxazole] | ≤ 1 |  | 
O=C(C1CC1)N1CC(F)(c2ccc(C3=NOC(c4cc(F)cc(Cl)c4)(C(F)(F)F)C3)cc2)C1 (stereo not shown) [Example 170, 5-(3-chloro-5-fluorophenyl)-3-{4-[1-(cyclopropylcarbonyl)-3-fluoroazetidin-3-yl]phenyl}-5-(trifluoromethyl)-4,5-dihydroisoxazole] | ≤ 3 |  | 
O=C(C1CC1)N1CC(F)(c2ccc(C3=NOC(c4ccc(F)c(F)c4)(C(F)(F)F)C3)cc2)C1 (stereo not shown) [Example 171, 3-{4-[1-(cyclopropylcarbonyl)-3-fluoroazetidin-3-yl]phenyl}-5-(3,4-difluorophenyl)-5-(trifluoromethyl)-4,5-dihydroisoxazole] | ≤ 0.3 |  | 
N#Cc1cc(C2=NOC(c3cc(Cl)c(F)c(Cl)c3)(C(F)(F)F)C2)ccc1C1(F)CN(C(=O)C2CCC2)C1 (stereo not shown) [Example 213, 2-[1-(cyclobutylcarbonyl)-3-fluoroazetidin-3-yl]-5-[5-(3,5-dichloro-4-fluorophenyl)-5-(trifluoromethyl)-4,5-dihydroisoxazol-3-yl]benzonitrile] |  | ≤ 1 | 
N#Cc1cc(C2=NOC(c3cc(Cl)c(F)c(Cl)c3)(C(F)(F)F)C2)ccc1C1(F)CN(C(=O)C2CCCC2)C1 (stereo not shown) [Example 214, 2-[1-(cyclopentylcarbonyl)-3-fluoroazetidin-3-yl]-5-[5-(3,5-dichloro-4-fluorophenyl)-5-(trifluoromethyl)-4,5-dihydroisoxazol-3-yl]benzonitrile] |  | ≤ 3 | 
CCCCC(=O)N1CC(F)(c2ccc(C3=NOC(c4cc(Cl)c(F)c(Cl)c4)(C(F)(F)F)C3)cc2C#N)C1 (stereo not shown) [Example 217, 5-[5-(3,5-dichloro-4-fluorophenyl)-5-(trifluoromethyl)-4,5-dihydroisoxazol-3-yl]-2-(3-fluoro-1-pentanoylazetidin-3-yl)benzonitrile] |  | ≤ 3 | 
CSCC(=O)N1CC(F)(c2ccc(C3=NOC(c4cc(Cl)c(F)c(Cl)c4)(C(F)(F)F)C3)cc2C#N)C1 (stereo not shown) [Example 218, 5-[5-(3,5-dichloro-4-fluorophenyl)-5-(trifluoromethyl)-4,5-dihydroisoxazol-3-yl]-2-{3-fluoro-1-[(methylthio)acetyl]-azetidin-3-yl}benzonitrile] |  | ≤ 1 | 
CC(C)/C(=N\C#N)N1CC(F)(c2ccc(C3=NOC(c4cc(Cl)c(F)c(Cl)c4)(C(F)(F)F)C3)cc2)C1 (stereo not shown) [Example 223, (1-(3-(4-(5-(3,5-dichloro-4-fluorophenyl)-5-(trifluoromethyl)-4,5-dihydroisoxazol-3-yl)phenyl)-3-fluoroazetidin-1-yl)-2-methylpropylidene)cyanamide] |  | ≤ 1 | 
CC(=O)NCCc1ccc(C2=NOC(c3cc(Cl)cc(Cl)c3)(C(F)(F)F)C2)cc1 (stereo not shown) [Example T1, reference compound] |  |  | > 30
O=C(CC(F)(F)F)NCCc1ccc(C2=NOC(c3cc(Cl)cc(Cl)c3)(C(F)(F)F)C2)cc1 (stereo not shown) [Example T2, reference compound] |  |  | > 30
